Results on 31 molecules are retold here after the antibiotic and cytotoxicity screens of Wong et al. (2023).

This is one part of the list.

The first test has as its system HSkMC (human skeletal muscle cells). In words: cytotoxicity call (relative viability < 0.9). The note with it: 10 µM.
Turning to `COc1ccc(S(=O)(=O)Nc2ccc3c(c2)C(=O)N([C@H](C)CO)C[C@@H](C)[C@@H](CN(C)Cc2ccc(C(=O)O)cc2)OCCCC[C@@H](C)O3)cc1`, the cytotoxicity call is “inactive”.
Same read-out and setting: with `COc1ccc(NC(=O)Nc2ccc3c(c2)C(=O)N([C@@H](C)CO)C[C@@H](C)[C@H](CN(C)Cc2ccncc2)OCCCC[C@H](C)O3)cc1` the entry was “inactive”; with `CC(C)NC(=O)Nc1ccc2c(c1)C(=O)N([C@@H](C)CO)C[C@@H](C)[C@@H](CN(C)Cc1ccc(C(F)(F)F)cc1)OCCCC[C@@H](C)O2`, “inactive”; with `COc1cc(C(C)=O)cc(OC)c1O`, “inactive”.
With `CO[C@H](CN(C)C(=O)C1CCOCC1)[C@H](C)CN(C(=O)Nc1ccc(C(F)(F)F)cc1)[C@H](C)CO`, the cytotoxicity call is “inactive”.
On the same count and under the same terms, the entry for `CCCC#Cc1ccc2c(c1)O[C@H](CN(C)S(=O)(=O)c1cccc(F)c1)[C@H](C)CN([C@H](C)CO)S2(=O)=O` is “inactive”; for `CNC[C@@H]1OCCCC[C@@H](C)Oc2ccc(NC(=O)Nc3ccc(C(F)(F)F)cc3)cc2C(=O)N([C@H](C)CO)C[C@H]1C` it is “inactive”.

The subject of a further test is HepG2. The experiment in a line: cytotoxicity call (relative viability < 0.9). Conditions: 10 µM.
As to `C[C@H]1CCCCO[C@@H](CN(C)C(=O)Nc2ccccc2)[C@@H](C)CN([C@@H](C)CO)C(=O)c2cc(NC(=O)Nc3ccccc3)ccc2O1`, the cytotoxicity call is “inactive”.
On to `C[C@H]1CN([C@@H](C)CO)S(=O)(=O)c2ccc(-c3ccc(C(=O)N(C)C)cc3)cc2O[C@@H]1CN(C)C(=O)C1CCC1`, for which the cytotoxicity call was “inactive”.
On the same count and under the same terms, the entry for `COc1ccc(NC(=O)N(C)C[C@@H]2OCc3cnnn3CCCC(=O)N([C@@H](C)CO)C[C@@H]2C)c(OC)c1` is “inactive”; for `COC(=O)C1=CC(CCCO)=C[C@@H](c2cccs2)N(Cc2cccc(OC(F)(F)F)c2)C=C1C(=O)OC` it is “inactive”.
Regarding `C[C@H](CO)N1C[C@H](C)[C@H](CN(C)Cc2ccc3c(c2)OCO3)OCCCC[C@H](C)Oc2ccc(NC(=O)Nc3ccc(F)cc3)cc2C1=O`, the cytotoxicity call was “inactive”.
The same measure, in the same setting: with `O=C(CCCCCC(=O)N/N=C/[C@H](O)[C@@H](O)[C@H](O)[C@H](O)CO[C@H]1O[C@H](CO)[C@H](O)[C@H](O)[C@H]1O)NO` the entry was “inactive”; with `Nc1nnc(C(=O)c2ccccc2N)s1`, “inactive”.
Same read-out and setting: the entry for `O=C([C@@H]1[C@@H](CO)[C@@H]2Cn3c(cccc3=O)[C@H]1N2S(=O)(=O)c1ccccc1F)N1CCOCC1` is “inactive”; for `CC1=C(C(=O)NCCCN2CCN(c3ccc(F)cc3)CC2)C2(CCN(Cc3ccccc3)CC2)OC1=O` it is “inactive”.
For the molecule `C[C@@H]1CN([C@H](C)CO)C(=O)Cc2cc(NC(=O)Nc3ccc(F)cc3)ccc2O[C@H]1CN(C)S(=O)(=O)c1cn(C)cn1`, the cytotoxicity call is “inactive”.
On the same count and under the same terms, the entry for `C[C@H](CO)N1C[C@H](C)[C@@H](CN(C)C(=O)Nc2ccc3c(c2)OCO3)OCCCC[C@H](C)Oc2ccc(NS(=O)(=O)c3ccccc3)cc2C1=O` is “inactive”; for `CC1=NCC[C@@H](C(=O)O)N1` it is “inactive”.
On the same count and under the same terms, with `CCCCC/C=C\C/C=C\C/C=C\C/C=C\CCCC(=O)O` the entry was “inactive”; with `C[C@H](CO)N1C[C@H](C)[C@@H](CN(C)Cc2ccc(Oc3ccccc3)cc2)Oc2c(NC(=O)NC3CCCCC3)cccc2C1=O`, “inactive”.
Take `C[C@@H]1CN([C@H](C)CO)C(=O)c2cc(NC(=O)c3ccccc3)ccc2O[C@@H](C)CCCCO[C@H]1CN(C)C(=O)Nc1ccccc1`: the cytotoxicity call was “inactive”.
On the same count and under the same terms, the entry for `Cn1nccc1-c1cccc(CN)c1` is “inactive”; for `C[C@H]1CN([C@@H](C)CO)C(=O)Cc2cc(NC(=O)Cc3ccccc3)ccc2O[C@H]1CN(C)C(=O)Nc1cccc2ccccc12` it is “inactive”.
Consider `CS(=O)(=O)[O-].C[n+]1ccccc1C=NO`, for which the cytotoxicity call was “inactive”.
With `O=C(NN1C(=O)CSC1=S)c1ccco1`, the cytotoxicity call is “inactive”.
Consider `COc1ccc(S(=O)(=O)Nc2ccc3c(c2)C(=O)N([C@H](C)CO)C[C@H](C)[C@H](CN(C)C(=O)Nc2ccccc2)OCCCC[C@@H](C)O3)cc1`, for which the cytotoxicity call is “inactive”.
Still for that read-out and setting: the entry for `NC(=O)c1nc2c(s1)CCNCC2` is “inactive”.
As to `C[C@@H]1CCCCO[C@H](CN(C)C(=O)Cc2ccccc2)[C@H](C)CN([C@@H](C)CO)C(=O)c2cc(NC(=O)Nc3ccc4c(c3)OCO4)ccc2O1`, the cytotoxicity call is “inactive”.
For the molecule `CCOC(=O)CCCCCC(=O)Nc1ccc2c(c1)C(=O)N([C@H](C)CO)C[C@@H](C)[C@@H](CN(C)C(=O)CCC(F)(F)F)OCCCC[C@H](C)O2`, the cytotoxicity call is “inactive”.
The same measure, in the same setting: with `C[C@H]1CN([C@@H](C)CO)C(=O)c2cccc(NC(=O)CCCCCC(=O)Nc3ccccc3N)c2O[C@H]1CN(C)C(=O)Nc1ccccc1` the entry was “inactive”.
